In publication PMC4336329 (PLoS ONE, 2015):
Out of some 310,000 compounds screened, about 2,200 (0.71%) showed an effect of 50% or more. Effects have a minus sign here. The list shows a part of the results.

The compounds below were run against human ether-à-go-go-related gene (hERG) potassium channel (human, UniProt Q12809) (assay: primary screen, population patch clamp on CHO cells stably expressing hERG).
Chain of human ether-à-go-go-related gene (hERG) potassium channel (Q12809 whole entry, looked up): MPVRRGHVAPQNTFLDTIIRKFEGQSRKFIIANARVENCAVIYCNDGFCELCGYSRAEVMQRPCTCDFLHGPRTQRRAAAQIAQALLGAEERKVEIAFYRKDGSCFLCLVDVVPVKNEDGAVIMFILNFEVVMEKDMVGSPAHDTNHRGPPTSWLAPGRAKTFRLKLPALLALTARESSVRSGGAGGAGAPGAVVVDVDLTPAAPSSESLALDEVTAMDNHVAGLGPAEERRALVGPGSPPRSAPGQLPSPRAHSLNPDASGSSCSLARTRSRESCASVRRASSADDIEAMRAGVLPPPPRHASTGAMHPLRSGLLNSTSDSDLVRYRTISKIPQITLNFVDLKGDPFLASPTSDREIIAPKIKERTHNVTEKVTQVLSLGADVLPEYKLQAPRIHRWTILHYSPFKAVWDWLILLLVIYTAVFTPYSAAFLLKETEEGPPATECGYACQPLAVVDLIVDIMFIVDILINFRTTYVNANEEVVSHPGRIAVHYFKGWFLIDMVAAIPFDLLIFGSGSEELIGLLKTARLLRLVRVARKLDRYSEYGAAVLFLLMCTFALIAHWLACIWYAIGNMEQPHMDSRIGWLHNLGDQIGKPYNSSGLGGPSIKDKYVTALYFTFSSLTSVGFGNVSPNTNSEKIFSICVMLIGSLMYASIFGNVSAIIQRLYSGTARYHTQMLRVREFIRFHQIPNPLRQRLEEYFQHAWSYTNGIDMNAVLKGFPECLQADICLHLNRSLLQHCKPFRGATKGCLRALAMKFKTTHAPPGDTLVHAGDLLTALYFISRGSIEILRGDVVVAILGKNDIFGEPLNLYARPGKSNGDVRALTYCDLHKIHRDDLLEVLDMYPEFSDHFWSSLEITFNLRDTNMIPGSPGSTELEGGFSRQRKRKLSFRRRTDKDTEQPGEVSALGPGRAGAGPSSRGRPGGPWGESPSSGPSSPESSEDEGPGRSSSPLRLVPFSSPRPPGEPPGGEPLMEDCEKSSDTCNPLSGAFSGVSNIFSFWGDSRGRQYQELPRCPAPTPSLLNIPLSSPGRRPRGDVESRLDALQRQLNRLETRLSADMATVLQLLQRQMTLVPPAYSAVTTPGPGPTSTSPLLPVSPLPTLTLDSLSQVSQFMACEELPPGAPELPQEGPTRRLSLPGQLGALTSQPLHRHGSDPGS

Compound | hERG current change (%, negative = inhibition) at 1uM
Cc1cc(=O)n(CCO)c(O)c1C#N | 1.48%
CCOc1cc(/C=N/NC(=O)C2CC2)ccc1OC(C)C | 17.1%
Cc1cccc(-n2ccnc2CN2CCN(C(C)C)C(CCO)C2)c1 (centres unmarked) | 4.89%
COc1ccc2c(c1)SCC/C2=C\CN1C(=O)CCC1=O | 5.87%
CCOCC(O)CS(=O)(=O)c1ccccn1 (centres unmarked) | 5.25%
CCOC(=O)c1csc(NC(=O)c2ccc(OCC)cc2)n1 | 1.15%
Fc1ccc(-c2ccc(NCCN3CCOCC3)nn2)cc1 | -0.948%
COc1ccc(CNC2CC(=O)N(C)C2=O)cc1 (centres unmarked) | 18.7%
O=C1Nc2ccc(S(=O)(=O)N(CCO)CCO)c3cccc1c23 | 14.5%
COc1ccccc1C(=O)NCCC(=O)N1CCCC(C)C1 (centres unmarked) | 9.16%
CC1Cc2nc(SCC(=O)NCC3CCCO3)n(C)c(=O)c2S1 (centres unmarked) | 0.397%
C=CCNC(=S)NNC(=O)C(CC(C)C)CC(C)O (centres unmarked) | 16.8%
COC1CCN(Cc2c(C(=O)N3CCc4ccccc4C3)nc3ccc(Cl)cn23)CC1 | -1.5%
Cc1ccnc(NS(=O)(=O)c2ccc(NC(=O)c3cc(-c4ccc(Br)cc4)nc4ccccc34)cc2)n1 | 6.18%
COc1cccc(NC(=O)c2ccc(NC(=O)C3CC(=O)OC34CCCCC4)cc2)c1 (centres unmarked) | 11.8%
Cn1cccc1C(=O)NCC(c1ccc(F)cc1)N1CCOCC1 (centres unmarked) | 5.02%
CC(C)(C)NC(=O)CSc1nc(N)cc(=O)[nH]1 | 5.84%
Cc1ccc(C(=O)C(OC(=O)c2cnccn2)c2ccccc2)cc1C (centres unmarked) | 9.71%
C=CCn1c(SCC(=O)c2c(N)n(CCC)c(=O)n(C)c2=O)nnc1-c1ccncc1 | 5.83%
CCN(CC)S(=O)(=O)c1ccc(C(=O)OC2CCCCC2CN(C)C)cc1 (centres unmarked) | 6.49%
Oc1ccccc1C1=Nc2ncnn2C(c2ccc(F)cc2)C1 (centres unmarked) | -19.1%
N#Cc1nc(-c2cccc3ccccc23)oc1N | 13.2%
O=C(OCCN1CCCC1=O)c1cc(F)c(F)c(F)c1F | 14.3%

Compound | hERG current change (%, negative = inhibition) at 1uM
O=c1c2c(nc3cc(-c4ccc(F)cc4)[nH]n13)CCCC2 | 0.758%
CCOc1ccccc1-c1nnc(SCC(=O)NC2(C#N)CCCC2)o1 | 10.2%
CC(C)C[C@H](NC(=O)c1[nH]cnc1C(=O)N[C@H](C)c1ccccc1)C(=O)OCc1ccccc1 | 17.5%
CCC(CC)C(=O)Nc1cccc(C(=O)N2CCOCC2)c1 | 8.97%
C=C(C)C(=O)OCCCCCCOc1ccc(C(=O)O)cc1 | 16.9%
CCOc1ccc(Oc2ccccc2NC(=O)CCNC(C)=O)cc1 | 10.3%
O=S(=O)(Nc1cc(Cl)ccc1N1CCOCC1)c1ccccc1Cl | 7.73%
Cc1c(NC(=O)CN2CCN(c3ccc(O)cc3)CC2)c(=O)n(-c2ccccc2)n1C | -1.89%
CCN1CCCC(OC(=O)Nc2ccccc2)C1 (centres unmarked) | 6.59%
COc1ccc(N2CCN(C(=O)CCS(=O)(=O)c3cccc4nsnc34)CC2)cc1 | 0.263%
COc1ccc(/C(C)=N/NC(=O)c2nnn(-c3nonc3N)c2-c2cccs2)cc1 | -0.469%
N=c1c(S(=O)(=O)c2ccc(Br)cc2)cc2c(=O)n3ccccc3nc2n1C1CCCC1 | 14.3%
CCc1nnc(NC(=O)CSc2nc3c(C)cccc3[nH]2)s1 | 11.7%
CCOc1ccccc1N(C(=O)c1snc(C(N)=O)c1N)C(C(=O)NC1CCCC1)c1cccs1 (centres unmarked) | 1.67%
O=C(COc1ccc(Cl)cc1)N1CCN(c2cccc(C(F)(F)F)c2)CC1 | -0.661%
O=C(NN=C1CCCC1)c1ccccc1OCc1ccc(Cl)cc1 | 1.89%
Cc1ccc(S(=O)(=O)NNC(=O)C(O)(c2ccccc2C)c2ccccc2C)cc1 | 11.7%
O=S(=O)(c1cccc2cccnc12)N1CCN(Cc2ccc3c(c2)OCO3)CC1 | 11.4%
CCc1cc(=O)oc2c(C)c(OC(C)C(=O)NCCCN3CCOCC3)ccc12 (centres unmarked) | 7.2%
COc1cc(/C=N/Nc2ccc(F)cc2F)cc(OC)c1O | 8.43%
C/C(Cl)=C\Cn1c(O)c(N=O)c2ccccc21 | 4.4%
COc1ccccc1C(=O)C1CCCN(C(=O)c2cccnc2SC)C1 (centres unmarked) | 12.5%
Cc1noc(C)c1COC(=O)c1cc2ccccc2cc1O | 5.86%

Compound | hERG current change (%, negative = inhibition) at 1uM
CC(=O)c1ccc(N2CCN(C(=O)C3CCCN(c4ncnc5c4nc4n5CCCCC4)C3)CC2)cc1 (centres unmarked) | -17.9%
Cc1nc2ccc(S(=O)(=O)NCC(=O)N3CCc4ccccc4C3)cc2s1 | 11%
CCOCCCn1cnc2c(c1=O)c1nc3ccccc3nc1n2-c1ccc(C)cc1 | -6.46%
CCCN1CNC(=S)N(CC2CCCO2)C1 (centres unmarked) | 13.2%
Cc1cccc(C(=O)N[C@H](C(=O)NCCc2ccc(S(N)(=O)=O)cc2)C(C)C)c1 | 0.633%
Cc1cn([C@@H](CCCCN)C(=O)NCCCCCCCCCCC(=O)N2CCNCC2)nn1 | 8.81%
CC(C)CCNC(=O)CN(C(=O)Cn1nnc(-c2ccc(F)cc2)n1)C1CCCC1 | 8.91%
COc1cc(/C=N/NC(=O)C[n+]2ccccc2)cc(OC)c1OC.[Cl-] | 7.2%
CCOC(=O)C1CCN(C(=O)Cn2nc(C)n3c(cc4cc(F)ccc43)c2=O)CC1 | -15.5%
CCOC(=O)N1CCN(C(=O)CN(CC)S(=O)(=O)c2cc(C)ccc2OC)CC1 | 7.71%
CCCc1nnc(SCC(=O)NC2CCCCC2)n1CCOC | 15.2%
Clc1ccc(Nc2ccccc2)nn1 | 15.4%
COc1ccc(CN2CCCC(CNC(=O)c3ccc(F)cc3)C2)c(C)c1C (centres unmarked) | -46.2%
CCCCOC(=O)C1C2C=CC3(CN(CCc4ccccc4)C(=O)C13)O2 (centres unmarked) | 6.67%
O=c1oc2ccccc2cc1-c1cn2cccnc2n1 | 13.8%
O=c1oc2ccccc2nc1/C=C(O)/C=C/c1ccc(F)cc1 | 6.52%
C=CCn1c(O)c(N=Nc2ccccc2O)c2ccccc21 | 7.58%
CCOC(=O)c1cc(NC(=O)c2ccccc2)c(=O)n2c1oc1ccccc12 | 6.29%
COc1ccc(C(=O)NC2CC2)cc1OC1CCN(Cc2ccccc2O)CC1 | -91.5%
CC(C)/C=C/C(=O)N1CCC(N2CCC(C(=O)N3CCOCC3)CC2)CC1 | 7.31%
COC(=O)CCCCCNC(=S)Nc1ccc2[nH]c(=O)[nH]c2c1 | 5.61%
CC(=O)O[C@@H]1[C@H]2[C@@H](C[C@@H](C)[C@@H]3C=CC(=O)[C@@]13C)OC(=O)[C@@H]2C | 10.1%
COCCCNC(=S)NNC(=O)c1cc(C2CC2)nc2ccccc12 | 14.7%

Compound | hERG current change (%, negative = inhibition) at 1uM
O=C(Cc1ccccn1)c1ccc(F)cc1 | 12.4%
N#CC1=C(N)OC2=C(C(=O)CCC2)C1c1cc2c(cc1Br)OCO2 (centres unmarked) | 15%
O=C(Nc1ccccc1N1CCCCC1)c1ccc(-c2cc(Cl)ccc2Cl)o1 | 12.6%
Cl.O=C(O)CC1NCCc2ccccc21 (centres unmarked) | 12.4%
CC(C)(C)NC(=O)C(c1ccncc1)N(C(=O)c1csnn1)C1CC1 (centres unmarked) | 7.02%
Clc1ccc(Oc2nc(Oc3ccc(Cl)cc3)nc(N3CCOCC3)n2)cc1 | -6.07%
COC(=O)C1=C(c2ccc(F)cc2F)C[C@@H]2CC[C@H]1N2C(=O)NC1CC1 | 11.2%
O=C(Cc1ccccc1)Nc1ccc(SC(F)F)cc1 | 2.98%
O=C(Oc1ccccc1C(=O)N1CCOCC1)c1ccc(Br)cc1 | 3.58%
O=C(CCN1C(=O)c2cccc([N+](=O)[O-])c2C1=O)Nc1nccs1 | 4.48%
S=c1[nH]ncn2c1cc1oc3ccccc3c12 | 14.1%
O=C(CC1SC(N2CCCC2)=NC1=O)Nc1ccc(C(=O)N2CCN(c3cccc(Cl)c3)CC2)cc1 (centres unmarked) | 19.5%
CC(Sc1nnnn1C1CCCCC1)C(=O)O (centres unmarked) | 13.1%
O=C(Nc1ccc(S(=O)(=O)Nc2nccs2)cc1)c1ccc(=O)[nH]c1 | 3.43%
Cc1cc(C)c(C#N)c(SCC(=O)c2cccs2)n1 | -3.08%
CCc1ccc(C(=O)NNc2ccc(S(N)(=O)=O)cc2)cc1 | 13.3%
C=CCSc1nc(C)c(CC=C)c(=O)[nH]1 | 14.1%
CC(=O)c1ccc(OCCCC(=O)OCC(=O)N2CCN(c3ccccc3)CC2)cc1 | 15.7%
Cc1ncoc1C(=O)Nc1nccs1 | 3.65%
CCCCN1CCc2c([nH]c3ccccc23)C1=O | 8.76%
O=C(Nc1ncc([N+](=O)[O-])s1)c1ccc2c(c1)OCO2 | 3.38%
Cc1ccc(OCC(=O)NCc2n[nH]c(=O)c3ccccc23)cc1 | 1.01%
Cc1cccc(NC(=O)c2oc3c(c2C)C(=O)CC(C)(C)C3)n1 | 15%
